Out of some 150,000 compounds screened, about 540 (0.36%) showed an effect of 50% or more. The list shows a part of the results.

The values that follow come from ChEMBL document CHEMBL4888484, “Replenishing the malaria drug discovery pipeline: Screening and hit evaluation of the MMV Hit Generation Library 1 (HGL1) against asexual blood stage Plasmodium falciparum ,using a nano luciferase reporter read-out” (2022).

The test system of this assay is Plasmodium falciparum. Description: Primary screen in NF54 nanoGlo assay, in single point, at 2uM, 72h; a lower Z score goes with more inhibition. Type of assay: functional, Erythrocyte. As to conditions: timepoint 72 hour.
For `Cc1cc(N2CCN(C(=O)NCc3ccc4[nH]c(C)cc4c3)CC2)nc(N)n1`, the % Inhibition (in general, the relative decrease from the control value, in per cent) is recorded as 0% and the Z score amounted to 0.03.
Turning to `O=C(CCc1nc2ccccc2s1)N1CCCN(C(=O)C2CCCC2)CC1`, the “% Inhibition” value was -9% and the Z score is on record as 1.31.
`CCc1noc(COC2CN(Cc3ccc(F)cc3Cl)C2)n1`: the “% Inhibition” value is -2% and the Z score was found to be 0.42.
Regarding `Cc1n[nH]c(C)c1CNc1cc(=O)n(C)c(=O)[nH]1`, the “% Inhibition” value was -7% and the Z score was determined as 1.
On to `O=C(NCCC1=CCCCC1)c1ccc(CN2C(=O)CCn3nc(-c4ccccc4)cc32)cc1`, for which the “% Inhibition” value is on record as -6% and the Z score is on record as 0.96.
On to `COc1ccc(CCNC(=O)c2nnc(Cc3c(F)cccc3Cl)o2)cc1OC`, for which the “% Inhibition” value worked out at 34% and the Z score is on record as -2.31.
Taken in the same sequence, the figures for `CC(C)c1nccc([C@H]2CC(=O)Nc3cc(N4CCNC4=O)ccc32)n1` were -11% and 1.75.
Taken in the same sequence, the figures for `CCn1c(=O)cc(C)c2ccc(OCC(=O)Nc3ccccc3)cc21` were -3% and 0.52.
Turning to `CC(C)N(CC(C)(C)O)C(=O)Nc1ccc(C(N)=O)c(Cl)c1`, the “% Inhibition” value amounted to 40% and the Z score is -5.83.
In the case of `Cc1cccc2c1c(-c1ccc(C(=O)N3CCC[C@H](C#N)C3)cc1)nn2C`, the “% Inhibition” value is -12% and the Z score amounted to 1.91.
As to `Cc1ccc(S(=O)(=O)CC(=O)Nc2nnc(-c3ccccc3)o2)cc1`, the “% Inhibition” value is reported as -16% and the Z score worked out at 3.1.
Turning to `O=C(Cc1cnn(-c2ccccc2)c1)N1CCN(c2ccccn2)CC1`, the “% Inhibition” value was -3% and the Z score worked out at 0.58.
Regarding `O=S(=O)(NCC1(c2cccs2)CC1)C1CC1`, the “% Inhibition” value is -13% and the Z score is on record as 1.92.
For `O=C(c1ccon1)N1CCN(c2ncnc3[nH]ccc23)C[C@@H](O)C1`, the “% Inhibition” value was -7% and the Z score was 1.13.
Consider `CC12CN(S(=O)(=O)c3ccc4c(c3)OCCO4)C3(C(=O)OCc4ccccc4)CC1CCC23C` (stereo not given), for which the “% Inhibition” value stood at 70% and the Z score is -8.79.
Consider `COC(=O)c1[nH]c2cc(OC)ccc2c1-n1cnnn1`, for which the “% Inhibition” value is reported as 7% and the Z score is -0.72.
Take `O=C1Nc2ccccc2C12OCC1(CO2)CC2C=CC1C2` (stereo not given): the “% Inhibition” value came to 6% and the Z score is -0.87.
Turning to `CN1CCN(C(=O)c2cccc(O)c2)C[C@@]12CCC(=O)N(CC1CC1)CC2`, the “% Inhibition” value turned out to be 10% and the Z score is listed as -1.32.
For `CCOC(=O)[C@H]1CCCN(Cc2cc(C)ns2)C1`, the “% Inhibition” value is given as -5% and the Z score is 0.59.
As for `COCCN1CCN(Cc2cnn(-c3ccccc3)n2)CC1`, the “% Inhibition” value is -4% and the Z score was 0.6.
In the same order, the values of `CC(C)[C@@H]1CN(CCn2ccnc2)CCCN1Cc1ccc(F)cc1` are -7% and 0.85.
Taken in the same sequence, the figures for `C=CCC(CC=C)C(=O)NC1CN(C(C)C)C1` were 28% and -3.17.
Taken in the same sequence, the figures for `O=C(Cn1cnnn1)N1CCC(Cc2cc(Cl)ccc2Cl)CC1` were -15% and 2.29.
On to `COCc1cccc(Nc2ccnc(C#N)c2)c1`, for which the “% Inhibition” value was -12% and the Z score turned out to be 2.08.
Take `COc1ccc(Cl)cc1S(=O)(=O)N(C)[C@H]1CS(=O)(=O)C[C@@H]1O`: the “% Inhibition” value was -10% and the Z score is 1.3.
For the compound `CCCCN(Cc1ccccc1)C(=O)c1cncn1-c1ccc(-c2cc3ccccc3o2)cc1`, the “% Inhibition” value is listed as -13% and the Z score amounted to 1.17.
`COC(=O)[C@](C)(N)c1ccc(Cl)c(Cl)c1`: the “% Inhibition” value is on record as -17% and the Z score is on record as 2.17.
In the same order, the values of `CC(=O)Nc1ccc(-c2cccnc2O)cc1` are -14% and 1.32.
In the same order, the values of `CCN1C[C@H](CN(C)C(=O)NCCc2ccc(OC)c(OC)c2)Oc2ccccc21` are -41% and 4.79.
As for `C=CCN([C@@H](C)C(=O)O)S(=O)(=O)c1ccc(C)cc1`, the “% Inhibition” value is on record as -2% and the Z score was 0.26.
Consider `Cc1ncc(CN2CCC(NC(=O)c3cscn3)C(C)C2)s1` (stereo not given), for which the “% Inhibition” value is recorded as -3% and the Z score is listed as 0.5.
Turning to `CCn1cc(CN2CCN(c3ccc(OC)cc3)C(C)(C)C2)cc1C#N`, the “% Inhibition” value is listed as -4% and the Z score is listed as 0.44.
Consider `CC(C)(C)CCN1C(=O)C2(CCN(C(=O)C(C)(C)C)CC2)Nc2ccccc21`, for which the “% Inhibition” value was -15% and the Z score worked out at 1.94.
Take `O=C(NCC1(c2ccccc2)CC1)N1CCC1`: the “% Inhibition” value is listed as -9% and the Z score turned out to be 1.86.
Regarding `CN(CCc1ccccn1)c1ncccc1CNc1ccnc(N)n1`, the “% Inhibition” value was -9% and the Z score came out at 0.96.
Regarding `Cc1ccc(C)c(OCc2cc(C(=O)N3CCC[C@]4(CCCN(C)C4)C3)no2)c1`, the “% Inhibition” value is recorded as -2% and the Z score is 0.15.
As to `Cc1ccsc1CN(C)C1CC(=O)N(C(C)c2cccnc2)C1=O` (stereo not given), the “% Inhibition” value is given as -14% and the Z score amounted to 2.
For `COCCOc1ncccc1-c1noc([C@@H]2CCCN2C(C)C)n1`, the “% Inhibition” value is listed as 2% and the Z score is -0.2.
With `O=C(NC1Cc2ccccc2C1)N1CCC[C@@H]1CN1CCCC1`, the “% Inhibition” value was -16% and the Z score is reported as 1.86.
As for `COc1ccccc1C(=O)Nc1ccc(OC(=O)Cc2ccccc2Cl)cc1`, the “% Inhibition” value worked out at 3% and the Z score is -0.31.
For `Cc1csc(NC(=O)CN2C(c3ccccc3)=C[C@@H](c3ccc(Cl)cc3)n3nnnc32)n1`, the “% Inhibition” value is -4% and the Z score came to 0.65.
On to `COc1cc2c(cc1CN1CCN(c3ccnc(N)n3)CC1)OCCCO2`, for which the “% Inhibition” value is given as -3% and the Z score was determined as 0.31.
Consider `CC[C@H](NC(=O)c1ccnnc1C)c1cnn(CC)c1`, for which the “% Inhibition” value was -10% and the Z score came to 1.57.
Consider `CC(NC1(C)CCS(=O)(=O)C1)C(=O)Nc1ccc(N2CCCCC2)cc1` (stereo not given), for which the “% Inhibition” value was -8% and the Z score is listed as 1.06.
For `CC(=O)N[C@H]1CCN(Cc2coc(C(C)C)n2)C1`, the “% Inhibition” value is -4% and the Z score is on record as 0.78.
For the compound `CCCN(Cc1ccncc1)c1cc([C@H]2CCOC2)nc(C)n1`, the “% Inhibition” value was -8% and the Z score is listed as 1.78.
For the compound `Cc1ccccc1NC(=O)c1nnc(C2CCN(C(=O)C3CCCC3)CC2)s1`, the “% Inhibition” value is -15% and the Z score is recorded as 1.37.
In the same order, the values of `CCCN1C(=O)OC(c2ccc(OC)cc2)C1(O)c1ccc(OC)cc1` (stereo not given) are 33% and -3.7.
Taken in the same sequence, the figures for `Cc1c(C(=O)Nc2ccccc2F)cccc1N(C)S(C)(=O)=O` were -7% and 1.
For `CCCNS(=O)(=O)c1ccc(-c2cc(C)no2)o1`, the “% Inhibition” value was -6% and the Z score is on record as 1.21.
Taken in the same sequence, the figures for `CNC(=O)NC(=O)CN(CC1CCC1)CC(F)(F)F` were -15% and 1.54.
As to `CC(C)c1ncc(CN(C)C(=O)c2onc3c2CCCC3)cn1`, the “% Inhibition” value was 3% and the Z score is recorded as -0.39.
With `Cc1cc(C)c(C#N)c(N2CCn3nc(CNC(=O)C4CCC4)cc3C2)n1`, the “% Inhibition” value is reported as -11% and the Z score is 1.46.
As for `CC[C@H](C)N(C/C=C/c1ccco1)Cc1cccnc1`, the “% Inhibition” value is 3% and the Z score is -0.38.
On to `COc1ccc(NC(=O)N2CCC[C@H]2c2cccs2)nn1`, for which the “% Inhibition” value is recorded as 34% and the Z score is -3.86.
